# Hit rate of the full screen: of about 310,000 compounds, about 18,000 (5.8%) were called active. The inconclusive results got no clear call from the source; some entries with a clear call stand among them for comparison. The call rests on the fitted dose curve; in most records, active means well fitted inhibition curve with a large enough effect; inconclusive means small, poorly fitted or top-dose-only effect, or another doubt; inactive means no such curve, though single readings can be large or run the other way. No potency is given beside an inconclusive call; the fits are too rough.
# Assay: Primary qHTS for delayed death inhibitors of the malarial parasite plastid, 48 hour incubation
# Details: P. falciparum luciferase growth in erythrocytes; series mostly up to 28.7 µM
# Method in brief: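 Luciferase-expressing parasites in RBCs, 2% Hct / 0.1% parasitemia final; RPMI 1640 + 0.5% Albumax; 37 C, 5% CO2, one generation; luminescence read-out, lower signal = inhibition.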
# Potency means the concentration at half of the fitted maximal effect; tags describe the fitted curve by direction and shape.
row,SMILES,Potency
1,O=C(c1cc(C(=O)NCCc2ccccc2)c(=O)n(CCc2ccccc2)c1)c1cc(Cl)ccc1O,active: 0.828 µM
2,O=[N+]([O-])c1cccc2c(Cl)ccnc12,"inconclusive [inhibitor, partial curve]"
3,COc1ccc(C(=O)/C=C/C(=O)N(CC(=O)NC2CCCCC2)Cc2ccccc2OC)c(O)c1,active: 9.28 µM
4,COc1ccc(C(C#N)=C2C=CC(=NO)C=C2)cc1,"inconclusive [inhibitor, single point]"
5,CCCOc1ccc(C(=O)Nc2ccc(N3CCN(C(=O)c4ccco4)CC3)cc2)cc1,"inconclusive [inhibitor, partial curve]"
6,CCC(=O)Nc1cc(C(=O)OC(C(=O)c2ccc(C)c(C)c2)c2ccccc2)ccc1C (configuration not stated),active: 11.7 µM
7,CC(C)CCC1(C)NC(=O)N(CC(=O)c2ccc[nH]2)C1=O (configuration not stated),"inconclusive [inhibitor, partial curve, poor fit]"
8,O=C(O)COc1ccccc1/C=N/NC(=O)COc1ccc(-c2ccccc2)cc1,inactive
9,COc1cc([C@H]2[C@@H]3CCCC[C@]3(O)CCN2CC(=O)Nc2ccc(C)cc2)ccc1O,"inconclusive [inhibitor, single point]"
10,COCCN(CCOC)S(=O)(=O)c1ccc(C(=O)Nc2sc3c(c2C(N)=O)CCCCC3)cc1,inactive
11,CCc1ccccc1NC(=O)Nc1cc(F)ccc1F,"inconclusive [inhibitor, single point]"
12,COc1ccc(/C=N\NC(=O)COc2ccccc2)c(C(=O)O)c1OC,inactive
13,O=C(CN1C2=NCCCN2c2ccccc21)c1cccs1,"inconclusive [inhibitor, single point]"
14,Cc1c(C(=O)N2CCCC(C)C2)sc2ncnc(N3CCCCC3C)c12 (configuration not stated),"inconclusive [inhibitor, single point]"
15,COCCn1c(SCC(=O)Nc2sccc2C(N)=O)nc2cc(Cl)ccc2c1=O,"inconclusive [inhibitor, single point]"
16,Cc1c(C)n2c(SCC(=O)Nc3ccc4c(c3)OCCO4)nnc2[nH]c1=O,active: 9.28 µM
17,COc1cc(C(=O)NNC(=O)C2CSC3(C)CCC(=O)N23)cc(OC)c1OC (configuration not stated),inactive
18,c1ccc(-c2nccnc2-c2ccccc2)cc1,"inconclusive [inhibitor, single point]"
19,CCCCCOc1ccc(C)cc1CN(CCCl)CCCl,"inconclusive [inhibitor, single point]"
20,COCCN(C(=O)CSc1nn(-c2ccc(F)cc2)c(=S)s1)c1c(N)n(CC(C)C)c(=O)[nH]c1=O,"inconclusive [inhibitor, partial curve]"
21,O=C(/C=C/c1ccc(Cl)cc1)NC(=S)NN1CCCCC1c1cccnc1 (configuration not stated),"inconclusive [inhibitor, partial curve, poor fit]"
22,COc1ccc(C(=O)n2nc(-c3ccco3)nc2N)cc1,inactive
23,C=CCn1cc(C(=O)NCc2ccc(Cl)cc2)c(=O)c2cc(S(=O)(=O)N(CC)CC)ccc21,active: 11.7 µM
24,Cn1c2ccccc2c2cc(C(=O)OCC(=O)N3CC(=O)Nc4ccccc43)sc21,active: 4.15 µM

row,SMILES,Potency
1,COc1ccccc1C(=O)NC(=S)Nc1ccc(NC(=O)c2cccs2)cc1,"inconclusive [inhibitor, single point]"
2,CC(CN1CCCCC1)OC(=O)/C=C/c1ccccc1 (configuration not stated),inactive
3,COC(=O)c1sc(NC(=O)COc2ccccc2C)nc1C,inactive
4,Cc1ccc(-c2cc(=O)c3cc(F)ccc3[nH]2)cc1,"inconclusive [inhibitor, full curve]"
5,COc1ccc(S(=O)(=O)N2CCCC2)cc1Br,inactive
6,Cc1ccc(NC(=O)c2cccc3cccnc23)cc1,inactive
7,CCNC(=S)Nc1ccc(Cl)c(C(F)(F)F)c1,inactive
8,Cn1ccc2cc(-c3ccc4ncnc(NCc5cccc(F)c5)c4c3)ccc21,active: 8.28 µM
9,CC(C)COc1cccc(-c2cc(C(=O)Nc3ccon3)c3ccccc3n2)c1,active: 2.08 µM
10,Cc1nc2n(n1)C(c1ccccc1)C1=C(CC(c3ccco3)CC1=O)N2 (configuration not stated),"inconclusive [inhibitor, partial curve]"
11,O=C1NC(c2ccc(Cl)c([N+](=O)[O-])c2)Nc2ccccc21 (configuration not stated),"inconclusive [inhibitor, partial curve, poor fit]"
12,CCN(CC)c1ccc(S(=O)(=O)N2CCOCC2)cc1NC(=O)COC(=O)c1cccnc1SC,"inconclusive [inhibitor, single point]"
13,Cc1oc2c(O)c(O)ccc2c(=O)c1-c1ccccc1,"inconclusive [inhibitor, single point]"
14,CC(Nc1nc(-c2ccc3c(c2)NC(=O)CO3)cs1)c1ccccc1 (configuration not stated),inactive
15,CCOc1ccccc1Nc1nnc(SCC(=O)Nc2nc(-c3ccc(OC)cc3)cs2)s1,"inconclusive [inhibitor, partial curve]"
16,CCN(CC)c1ccc(C(=O)NNC(=O)c2cccn2C)cc1,inactive
17,COc1ccc(Cl)cc1C(=O)NNC(=O)COC(=O)CCN=C1NS(=O)(=O)c2ccccc21,inactive
18,O=S(=O)(c1ccc(Oc2ccc(Cl)cc2)c(S(=O)(=O)N2CCCCC2)c1)N1CCCCC1,active: 4.65 µM
19,Cc1c(C)n(C)c2ccc(C(=O)N3CCN(c4ccccn4)CC3)cc12,active: 10.4 µM
20,COCCNC(=O)NC(=O)CN1CCN(C(c2ccccc2)c2ccccc2)CC1,"inconclusive [inhibitor, single point]"
21,CCN(CC)S(=O)(=O)c1cc(NC(=O)Cn2ncc(Cl)c(Cl)c2=O)ccc1C,"inconclusive [inhibitor, partial curve]"
22,O=C(NN1CC(=O)N(c2cc(Cl)cc(Cl)c2)CC1=O)c1sccc1Cl,"inconclusive [inhibitor, partial curve, poor fit]"
23,CCCc1ccc2c(N)c(C#N)sc2n1,inactive

# Source: PubChem BioAssay AID504832 (National Center for Advancing Translational Sciences (NCATS), 2011)
